Results on 23 compounds are retold here after article PMC4336329 (PLoS ONE, 2015).

Hit rate of the full screen: of about 310,000 compounds, about 2,200 (0.71%) showed an effect of 50% or more. Effects have a minus sign here. The list shows a part of the results.

Sequence of human ether-à-go-go-related gene (hERG) potassium channel (Q12809 whole entry, looked up): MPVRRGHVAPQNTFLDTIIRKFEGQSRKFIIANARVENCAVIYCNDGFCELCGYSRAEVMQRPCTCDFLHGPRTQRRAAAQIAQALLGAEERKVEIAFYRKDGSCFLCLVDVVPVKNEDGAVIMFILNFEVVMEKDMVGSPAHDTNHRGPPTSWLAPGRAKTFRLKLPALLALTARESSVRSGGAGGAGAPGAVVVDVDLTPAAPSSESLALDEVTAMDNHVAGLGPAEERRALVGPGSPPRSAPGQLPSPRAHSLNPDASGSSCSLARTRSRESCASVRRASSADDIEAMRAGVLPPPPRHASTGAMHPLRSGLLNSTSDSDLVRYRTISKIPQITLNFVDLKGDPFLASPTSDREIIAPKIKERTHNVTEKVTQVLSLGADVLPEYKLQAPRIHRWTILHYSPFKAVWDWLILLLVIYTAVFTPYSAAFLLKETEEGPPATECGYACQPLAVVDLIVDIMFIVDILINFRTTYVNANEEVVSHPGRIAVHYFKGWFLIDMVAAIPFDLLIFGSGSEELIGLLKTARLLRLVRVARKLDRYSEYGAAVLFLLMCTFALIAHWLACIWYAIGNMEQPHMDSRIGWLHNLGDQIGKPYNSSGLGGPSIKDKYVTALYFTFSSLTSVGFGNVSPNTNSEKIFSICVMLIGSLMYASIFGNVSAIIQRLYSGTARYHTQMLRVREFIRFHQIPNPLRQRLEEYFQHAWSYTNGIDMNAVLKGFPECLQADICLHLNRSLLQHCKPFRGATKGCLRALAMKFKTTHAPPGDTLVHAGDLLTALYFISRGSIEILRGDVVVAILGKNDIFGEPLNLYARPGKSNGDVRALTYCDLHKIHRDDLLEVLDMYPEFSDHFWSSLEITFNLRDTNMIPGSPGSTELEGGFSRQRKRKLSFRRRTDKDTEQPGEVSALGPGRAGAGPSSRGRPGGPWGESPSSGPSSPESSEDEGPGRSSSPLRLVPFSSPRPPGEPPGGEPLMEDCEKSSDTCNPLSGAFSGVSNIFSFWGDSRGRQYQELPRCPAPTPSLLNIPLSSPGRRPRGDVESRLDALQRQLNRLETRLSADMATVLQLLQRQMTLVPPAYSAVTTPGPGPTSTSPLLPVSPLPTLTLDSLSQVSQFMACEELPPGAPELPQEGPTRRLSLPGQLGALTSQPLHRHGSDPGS

This experiment has as its target human ether-à-go-go-related gene (hERG) potassium channel (human, UniProt Q12809). Nature of the experiment: primary screen, population patch clamp on CHO cells stably expressing hERG. Here is the method: Briefly, Chinese hamster ovary (CHO) cells stably expressing the hERG channel were dislodged from tissue culture flasks and dispensed into PPC plates. […] During the recording, background leak currents were estimated by a 100 ms step to -80 mV from an initial holding potential of -70 mV and subtracted from the subsequent current measurement. The campaign was conducted in two phases using slight differences in recording protocol. In the first phase, the initial voltage pulse used a 100 ms step to -30 mV from a holding potential of -70 mV, a 2 s conditioning step to +25 mV, and a 2 s test step to -30 mV. During the second phase of the screen, the potential during the conditioning step was raised to +45 mV. In both phases of the campaign, a secondary voltage pulse was applied using the same parameters as the second phase initial pulse. The initial and secondary pulses were applied in the absence of compound, and upon application of 1 μM and 10 μM test concentrations. Small molecule effects on hERG current density were quantified by […].
As for `CCOC(=O)C1CCN(C(=O)c2cc(CN3C(=O)c4ccccc4C3=O)ccc2OCC)CC1`, the “hERG current change (%, negative = inhibition) at 1uM” value is reported as -5.68%. As to `NC(=O)c1sc2nc3c(cc2c1N)CCCCCC3`, the “hERG current change (%, negative = inhibition) at 1uM” value is recorded as 12.9%. In the case of `O=C(Nc1nnc(C2CC2)s1)C1Cc2ccccc2CN1S(=O)(=O)c1ccccc1F` (centres unmarked), the “hERG current change (%, negative = inhibition) at 1uM” value is 7.7%.

On to `Br.O=C(O)c1ccc(Nc2nc(-c3ccccc3)cs2)cc1`, for which the “hERG current change (%, negative = inhibition) at 1uM” value is 5.19%. Then `NC(=O)C1CCN(C(=O)COc2ccc(Nc3ccccc3)cc2)CC1`, with 8.78%; and `O=C(N/N=C/c1c[nH]c2ccccc12)c1ccc(Cl)cc1`, with 8.54%.

Consider `Cc1ccc(Cn2ncc3c(NCCCN4CCOCC4)ncnc32)cc1`, for which the “hERG current change (%, negative = inhibition) at 1uM” value is on record as 15.3%. Under `Cc1cc(C)c[n+](C(C)C(=O)c2ccc(-c3ccccc3)cc2)c1.[Br-]` (centres unmarked) stands 11.8%; under `COC(=O)CN1C(=O)N/C(=C/c2ccc(C)o2)C1=O`, -0.312%; under `Cc1ccc(-n2[nH]c(C)c(/C=C3/C=Nc4ccccc43)c2=O)cc1C`, -0.892%. Under `CC(C)(OC(=O)c1ccc(F)cc1)c1cc2ccccc2c(=O)o1` stands 11.6%; under `CCOc1ccccc1N(C(=O)CNS(=O)(=O)c1ccccc1)C(CC)C(=O)NCc1ccco1` (centres unmarked), 8.59%.

For the compound `Cc1[nH]n(-c2ccccc2)c(=O)c1N=Nc1ccc(Cl)cc1`, the “hERG current change (%, negative = inhibition) at 1uM” value came to 18.5%. Then `CC12COC3(C(=O)NCCc4ccccc4)CC1CCC32C` (centres unmarked), with 2.31%; and `CCOCCCn1c(=S)[nH]c2cc(C(=O)NCc3ccc(F)cc3)ccc2c1=O`, with 10.7%. Then `CCOc1ccc(NC(=O)C(Cc2ccccc2)NC(=O)C2CCCCC2)cc1` (centres unmarked), with 12.5%; and `CCOC(=O)c1cnn(Cc2ccccc2Cl)c1N`, with 5.95%.

For `C#CCOCCOCCOCCNc1nc(N2CCN(C(=O)[C@H](CCCCN)n3cc([C@@H](N)C(C)CC)nn3)CC2)nc(N2CCN(C(=O)[C@H](CCCCN)n3cc([C@@H](N)CC(C)C)nn3)CC2)n1.Cl` (some centres unmarked), the “hERG current change (%, negative = inhibition) at 1uM” value is 5.01%.

`COc1ccc(NC(=O)C2C3CCC4C(CCC32)C4(Cl)Cl)cc1` (centres unmarked): the “hERG current change (%, negative = inhibition) at 1uM” value came out at 11.8%.

For `O=C(CN1CCN(Cc2ccccc2)CC1)NNC(=O)c1ccc(Cl)cc1`, the “hERG current change (%, negative = inhibition) at 1uM” value is 1.67%. Under `O=C(Nc1ccc(Cl)cc1Cl)c1cccc(N2C(=O)C=CC2=O)c1` stands 6.23%; under `Cc1onc(-c2ccccc2)c1C(=O)Nc1ccc(S(=O)(=O)NC2=NCCCCC2)cc1`, 15.6%; under `Cc1ccc2c(CN3CCC(C)CC3)cc(=O)oc2c1C`, 7.01%.
